Among the data in PubChem BioAssay AID488969 (Vanderbilt High Throughput Screening Facility, 2010) are z-score values, retold here.

In all, about 110,000 compounds were measured (“z-score”: median about -0.1, highest 2% from about 2 on). The list shows a part of the results. Activity calls are given as the source filed them.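 Rule for the calls: active = z-score in the third read window above 3 or below -3; inactive = the rest.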

This assay has as its target Metabotropic glutamate receptor 8 (Rattus norvegicus) (UniProt P70579). The experiment in a line: rat mGluR8 modulators via GIRK flux, primary screen, cell-based, thallium flux, HTS (AID 488969). As to conditions: HEK293 rat mGluR8, GIRK (G protein-gated inwardly rectifying potassium channel) thallium flux, FluoZin2; at 10 µM; stronger effect = higher value; submaximal glutamate (EC20) added with thallium.
Sequence of UniProt P70579 (P70579 whole entry, looked up): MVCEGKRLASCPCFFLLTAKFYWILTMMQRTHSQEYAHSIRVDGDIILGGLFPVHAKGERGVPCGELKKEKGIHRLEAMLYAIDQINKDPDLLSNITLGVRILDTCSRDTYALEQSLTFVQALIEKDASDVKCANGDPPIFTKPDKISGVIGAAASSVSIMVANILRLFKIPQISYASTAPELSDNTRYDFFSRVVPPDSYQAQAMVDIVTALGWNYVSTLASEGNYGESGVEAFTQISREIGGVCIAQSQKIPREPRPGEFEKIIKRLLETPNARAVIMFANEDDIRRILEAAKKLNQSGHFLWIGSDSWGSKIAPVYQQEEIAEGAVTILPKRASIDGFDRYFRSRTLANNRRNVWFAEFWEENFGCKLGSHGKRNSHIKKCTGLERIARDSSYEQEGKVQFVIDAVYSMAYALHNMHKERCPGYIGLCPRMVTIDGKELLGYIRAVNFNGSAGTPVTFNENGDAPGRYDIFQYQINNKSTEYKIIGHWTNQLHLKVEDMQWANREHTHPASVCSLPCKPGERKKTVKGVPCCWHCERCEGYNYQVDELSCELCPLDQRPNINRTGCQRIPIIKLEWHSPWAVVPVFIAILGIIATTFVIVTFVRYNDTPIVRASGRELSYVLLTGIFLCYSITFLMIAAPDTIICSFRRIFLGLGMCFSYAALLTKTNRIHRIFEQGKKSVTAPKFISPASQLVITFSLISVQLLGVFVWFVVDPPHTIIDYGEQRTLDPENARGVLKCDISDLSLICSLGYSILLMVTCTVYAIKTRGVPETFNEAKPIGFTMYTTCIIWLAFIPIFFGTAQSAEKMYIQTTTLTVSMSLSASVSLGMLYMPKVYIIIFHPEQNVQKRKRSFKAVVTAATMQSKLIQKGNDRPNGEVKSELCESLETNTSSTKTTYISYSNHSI
For `Cc1ccc(S(=O)(=O)Nc2cc(C(F)(F)F)ccc2N2CCOCC2)cc1C`, the z-score was -0.133. The same measure for `CS(=O)(=O)N1CCCC(C(=O)NCCCN2CCN(Cc3ccccc3)CC2)C1` (centres undefined): 0.429; for `COc1ccc(C(NC(N)=O)c2ccccc2)cc1` (centres undefined): -0.028; for `CC1(C)CC(=O)C2=C(C1)Nc1ccccc1N1C(=O)c3ccccc3C21` (centres undefined): 0.37. Next, `COc1ccc(OC)c(Nc2ccc(C(=O)O)cc2[N+](=O)[O-])c1`: 0.592; `COc1ccc(CC(=O)Nc2ccc(-c3csc(C)n3)cc2)cc1`: 0.00773. `Cc1cc(CSc2ccccc2)ccc1NC(=O)c1ccc(C)c([N+](=O)[O-])c1` registered a z-score of -0.374. Next, `CCOc1ccc(NC(=O)C2CC(=O)N(C)C(=Nc3ccc4c(c3)OCO4)S2)cc1` (centres undefined): 0.974. On to `Cc1cc(C)c(C(=O)CSc2n[nH]c(=O)n2C2CC2)cc1C`, for which the z-score worked out at 0.657.

On to `O=C(CSc1nc(Cc2ccccc2)nc2ccccc12)Nc1nc2c(s1)CCCC2`, for which the z-score was -0.124. Next, `S=C1NC(c2ccccc2)=NCN1c1ccc(Cl)cc1`: active: 3.19. The same measure for `Fc1ccccc1/C=C1\CCCC2=C1Nc1ncnn1C2c1ccccc1F` (centres undefined): 0.12; for `COc1ccc(OC)c(S(=O)(=O)Nc2ccc(C(C)=O)cc2)c1`: -0.0352. Next, `CN1C(=O)CC(N2CCC(c3nc4ccccc4[nH]3)CC2)C1=O` (centres undefined): -0.0202; `CCc1nc(NCc2ccccc2)c(C#N)c2c1CCCC2`: -0.163; `CCOC(=O)C1=C(C)N(C)C(=O)NC1c1c(C)nn(-c2ccccc2)c1C` (centres undefined): -0.0648. For the compound `CCCCOCCCNC(=O)c1ccc(OCC)cc1`, the z-score was -0.474. The same measure for `Cc1ccccc1-c1noc(-c2ccccc2F)n1`: -0.345. `O=C(CC(O)(c1ccccc1)C(F)(F)F)c1cccs1` (centres undefined) came in with a z-score of -0.171. The same measure for `COc1ccc(-c2nnc(Nc3ccc(CC(N)=O)cc3)c3ccccc23)cc1`: -0.35; for `CC(/C=C/c1ccc(N(C)C)cc1)=N\N=C(/N)SC1CC(=O)N(c2ccc(C(=O)O)cc2)C1=O` (centres undefined): 0.455. The compound `CC(=O)C1(C)OC(N)=C(C#N)C(c2ccccc2)C1(C#N)C#N` (centres undefined) gave a z-score of -0.0829.

In turn, `CCOc1ccc2nc(-c3ccccc3)nc(SCC(=O)Nc3ncc(C)s3)c2c1` displayed a z-score of -0.067. Take `CCC1CCCCN1CCNC(=O)CCS(=O)(=O)c1ccc(Br)cc1` (centres undefined): the z-score was determined as 0.377. Next, `Cc1c(NCc2cc(Cl)ccc2O)c(=O)n(-c2ccccc2)n1C`: -0.0479; `CCOC(=O)COc1c(OC)cc(Cl)cc1C1Nc2ccccc2C(=O)N1c1ccccc1` (centres undefined): 0.355; `CCOC(=O)c1sc2nc(C3CC3)cc(-c3ccc(F)cc3)c2c1N`: -0.494.

Take `CCOc1ccc(CC2CC(=O)NC2=O)cc1` (centres undefined): the z-score turned out to be 0.322.

For the compound `CN(C)C1C(=O)c2ccccc2C1=O`, the z-score was -0.198. Next, `Cc1ccc(S(=O)(=O)NC(CC(N)=O)C(=O)O)cc1` (centres undefined): 0.938; `O=C(NCCc1cccc(Cl)c1)c1ccc(Cl)c([N+](=O)[O-])c1`: 0.0647; `O=c1oc(Nc2cccc(F)c2)nc2ccccc12`: -0.269.

For the compound `Nc1ccc(C(=O)Nc2ccco2)cc1`, the z-score is -0.388.

`Cc1cccc2cc(C(c3nnnn3C3CCCC3)N3CCOCC3)c(=O)[nH]c12` (centres undefined) displayed a z-score of 0.212.

As to `COc1ccc(/C=C/C(=O)c2ccc(Cl)cc2)c(OC)c1`, the z-score was -0.125. Compound `COc1cccc(C(=O)COc2ccccc2-c2ccccc2)c1` returned a z-score of 0.361. For `Cc1cccc(-n2c3nc(=O)[nH]c(=O)c-3cc3c(C)nn(-c4ccccc4)c32)c1C`, the z-score was -0.128.

`Clc1cnc(N/N=C/c2ccco2)c(Cl)c1` had a z-score of 0.0323.

The compound `CCOC(=O)C(=NC1CCCCC1)NNc1cccc(C(F)(F)F)c1` gave a z-score of -0.0996. The same measure for `CC(c1ccccc1)C1C(C#N)=C(N)SC(N)=C1C#N` (centres undefined): 0.0839. Next, `NC(=O)c1c(NC(=O)CSc2nc3c(c(C(F)(F)F)n2)CCc2ccccc2-3)sc2c1CCCC2`: -0.123. The same measure for `O=C(NCc1ccc(F)cc1)c1cc2sccc2n1Cc1ccc(F)cc1`: 0.0229; for `O=C(NCc1ccc(F)cc1)c1ccc(S(=O)(=O)Nc2cccc(C(F)(F)F)c2)cc1`: 0.136.

Turning to `CC(C)(C)C(=O)Nc1nnc(SCC(=O)NCc2cccs2)s1`, the z-score was 0.0421. Consider `O=C(/C=C/c1ccccc1)N1CCN(Cc2nc3ccccc3c(=O)[nH]2)CC1`, for which the z-score was -0.232. Consider `CC(C)NC(=O)NC(=O)CSc1nnc(COc2ccccc2F)n1C(C)C1CC2CCC1C2` (centres undefined), for which the z-score is 0.707. Next, `COc1ccc(C)cc1S(=O)(=O)N1CCN(S(=O)(=O)c2cc(C)ccc2OC)C(C)C1` (centres undefined): -1.66; `CN(C)N1C(N)=C(C#N)C(c2cccnc2)C2=C1CCCC2=O` (centres undefined): 0.225. `Cc1ccc2nc(C)c(C(=O)N/N=C/c3ccc(N4CCOCC4)cc3)cc2c1` displayed a z-score of -0.281. The same measure for `Cc1ccc(C(=O)NNC(=O)c2ccc(SCC3CCCO3)c([N+](=O)[O-])c2)cc1` (centres undefined): 0.19; for `COc1cccc(N2CCN(S(=O)(=O)c3ccc4nc(-c5ccccc5)[nH]c4c3)CC2)c1`: 0.374. `COc1ccc(Cl)cc1C(=O)NNC(=O)c1cccnc1` had a z-score of -0.0155. The same measure for `O=C(Nc1ccc2c(c1)OCO2)c1c(F)c(F)c(F)c(F)c1F`: -0.0616; for `CC12CC(c3ccccc3O1)N(C(=O)c1ccc(Br)o1)C(=O)N2c1ccccc1` (centres undefined): -0.193; for `O=C(NCCCN1CCOCC1)c1cc(Cl)ccc1[N+](=O)[O-]`: -0.502.

On to `Cc1ccc(C(NC(=O)N2CC(C)OC(C)C2)C(Cl)Cl)cc1F` (centres undefined), for which the z-score worked out at 0.044. Next, `CCOc1cc(S(=O)(=O)N2CCOCC2)ccc1F`: -0.0739; `CCCCNC(=O)NS(=O)(=O)c1ccc(C(=O)OC)o1`: -0.374; `COc1cccc(Nc2nnc(SCn3nnc4ccccc4c3=O)s2)c1`: 0.432.

`O=C(NCc1ccccc1)c1ccc(S(=O)(=O)N2CCCc3ccccc32)cc1` showed a z-score of -0.354. In turn, `CCCNC(=O)c1nc2ncc(Br)cn2n1` came in with a z-score of -0.268. The same measure for `O=S(=O)(N/N=C1/CCCc2ccccc21)c1ccc(Br)cc1`: 0.0361; for `COC(=O)C1CN(S(=O)(=O)c2ccc(C)cc2)CCN1S(=O)(=O)c1ccc(C)cc1` (centres undefined): 0.112. The same measure for `CCCN(CCC)CCNC(=O)CS(=O)Cc1nc(-c2ccc(C)cc2)oc1C` (centres undefined): 1.19.

Turning to `Cc1cc(C)c2c(=O)n(CC(=O)N3CCC(N4CCCCC4)CC3)sc2n1`, the z-score was -0.421.

Compound `COc1cc(C(=O)NCc2cn3ccccc3n2)cc(OC)c1OC` had a z-score of -0.342. The same measure for `O=C(CCCC(=O)Nc1cccnc1)Nc1cccnc1`: -0.0409; for `COc1ccccc1C(=O)Nc1nc2nc(-c3ccccc3)cc(=O)n2[nH]1`: -0.239. Next, `CCc1ccccc1NC(=O)CSc1nnc([C@@H](N)Cc2ccccc2)o1`: -0.715.
